Assay results reported in paper PMC4336329 (PLoS ONE, 2015).
The campaign covered roughly 310,000 compounds. About 14,000 (4.5%) showed an effect of 50% or more. Effects have a minus sign here. This is one part of the list.

target: human ether-à-go-go-related gene (hERG) potassium channel (human, UniProt Q12809); assay: primary screen, population patch clamp on CHO cells stably expressing hERG
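Further: peak tail current of the secondary pulse compared with the same well before compound.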

human ether-à-go-go-related gene (hERG) potassium channel, sequence (Q12809 whole entry, looked up): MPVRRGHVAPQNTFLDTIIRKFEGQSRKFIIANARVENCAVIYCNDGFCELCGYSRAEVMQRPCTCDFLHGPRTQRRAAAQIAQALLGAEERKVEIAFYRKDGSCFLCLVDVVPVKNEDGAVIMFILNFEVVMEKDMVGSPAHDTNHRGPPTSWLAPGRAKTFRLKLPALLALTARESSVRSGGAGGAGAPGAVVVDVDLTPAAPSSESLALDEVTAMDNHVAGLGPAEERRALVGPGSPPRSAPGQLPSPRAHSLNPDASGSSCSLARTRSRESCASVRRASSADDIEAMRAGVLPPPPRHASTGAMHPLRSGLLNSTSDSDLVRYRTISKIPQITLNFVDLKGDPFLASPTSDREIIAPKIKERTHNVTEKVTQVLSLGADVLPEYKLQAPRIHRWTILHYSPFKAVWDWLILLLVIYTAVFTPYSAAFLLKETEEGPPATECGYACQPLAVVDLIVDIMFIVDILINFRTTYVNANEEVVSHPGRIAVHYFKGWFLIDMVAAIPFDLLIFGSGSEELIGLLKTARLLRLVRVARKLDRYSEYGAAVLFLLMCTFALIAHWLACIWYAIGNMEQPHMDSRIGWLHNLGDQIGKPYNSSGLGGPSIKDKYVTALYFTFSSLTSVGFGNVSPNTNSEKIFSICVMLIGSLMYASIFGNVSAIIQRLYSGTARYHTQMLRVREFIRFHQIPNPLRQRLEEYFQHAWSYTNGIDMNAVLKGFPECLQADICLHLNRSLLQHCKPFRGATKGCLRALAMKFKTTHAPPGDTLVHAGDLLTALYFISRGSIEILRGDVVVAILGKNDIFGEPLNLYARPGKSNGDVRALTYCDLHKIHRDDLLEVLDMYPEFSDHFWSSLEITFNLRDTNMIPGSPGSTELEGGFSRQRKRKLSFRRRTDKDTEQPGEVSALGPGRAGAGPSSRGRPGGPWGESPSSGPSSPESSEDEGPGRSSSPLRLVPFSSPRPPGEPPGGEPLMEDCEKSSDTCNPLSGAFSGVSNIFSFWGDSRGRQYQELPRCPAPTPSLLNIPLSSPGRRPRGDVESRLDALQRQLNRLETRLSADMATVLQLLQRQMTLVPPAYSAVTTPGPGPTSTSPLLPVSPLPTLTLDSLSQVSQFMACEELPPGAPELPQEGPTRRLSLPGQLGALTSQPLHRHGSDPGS

SMILES	hERG current change (%, negative = inhibition) at 10uM
[O-][n+]1c2ccc3nonc3c2nn1-c1ccccc1Cl	6.8%
C=CCNC(=O)CN(c1ccc(OC)cc1OC)S(C)(=O)=O	14.5%
Cc1cc(=O)n2nc(N3CCC(C(=O)NCc4ccc(Cl)cc4)CC3)sc2n1	-70%
O=C1CSC2(CCCCC2)N1CCO	4.78%
Cc1cc(C)c2c(N)c(C(=O)NC3CC3)sc2n1	8.51%
Fc1ccc(NC(=S)NC2CCN(Cc3ccccc3)CC2)cc1	-30%
O=C(/C=C/c1ccccc1[N+](=O)[O-])NCCN1C(=O)S/C(=C\c2ccc(F)cc2)C1=O	17%
c1ccc2cc3[nH]c(CN4CCOCC4)nc3cc2c1	-2.11%
Cc1cccc(C(=O)OCC(=O)N(C)c2ccccc2)c1C	6.74%
CCC(=O)NCCc1nc2ccccc2n1CC	1.33%
O=C(COc1ccc(Cl)cc1)N1CCN(S(=O)(=O)c2ccccc2)CC1	-54.6%
COc1ccc(C(=O)NNC(=O)CSc2nnc(C)n2CC2CCCO2)cc1 (centres unmarked)	18.2%
O=C(OCCNC(=O)c1ccc2ccccc2n1)c1ccc(F)cc1	-6.68%
O=C(CN(Cc1ccc(Cl)cc1)S(=O)(=O)c1ccccc1)NCC1CCCO1 (centres unmarked)	-23.9%
O=C(Oc1ccnc2cc(Cl)ccc12)N1CCOCC1	-1.74%
NC(=O)Cc1nc2scc(-c3ccc(Cl)cc3)c2c(=O)[nH]1	2.14%
CC(C)Cn1c(N)c(C(=O)COC(=O)Cc2cccc(C(F)(F)F)c2)c(=O)n(C)c1=O	-54.5%
CC(C)OCCCNC(=O)C1CCC(=O)N1C(C)C (centres unmarked)	-10.3%
COC(=O)[C@@H]1C[C@@]2(O)[C@H](O)[C@H](O)[C@H](O)C[C@H]2N1Cc1ccc(C(C)(C)C)cc1	11.1%

SMILES	hERG current change (%, negative = inhibition) at 10uM
COc1ccccc1OCc1ccc(C(=O)N2CCN(C)CC2)o1	-15.2%
NCCCC[C@H]1CNC(=S)N1CC1CCCCC1	20.6%
CCOc1nc(C)cc(COC)c1C(N)=O	1.32%
Cc1[nH]c(=S)c(C#N)c(C)c1CC(=O)c1ccc(Br)cc1	10.7%
C=CCN(CC=C)CCOc1ccc2ccccc2c1.O=C(O)C(=O)O	-28%
CCCn1nnc(NC(=S)NC(=O)c2cccs2)n1	0.0611%
COc1cc(/C=N/NC(=O)C(Cc2c[nH]c3ccccc23)NC(=O)OCc2ccccc2)cc([N+](=O)[O-])c1O (centres unmarked)	-0.112%
COc1ccc(N2C(=O)[C@@H]3C(c4cccnc4)=NO[C@@H]3C2=O)cc1	10.8%
N=c1oc2ccc3ccccc3c2cc1-c1nc(-c2ccccc2)cs1	1.27%
O=CN1CCN(C(=O)c2cc3cc(Cl)ccc3[nH]2)CC1	-12%
CS(=O)(=O)N(CC(=O)NC1CCCC1)c1cccc(F)c1	-12%
COc1cccc(-n2nnc3c(=O)n(CC(=O)Nc4cc(C)on4)cnc32)c1	28.7%
CSc1cccc(NC(=S)N(CCC(C)C)C2CCN(C(C)=O)CC2)c1	-23.3%
O=C(CN(Cc1ccccc1)S(=O)(=O)c1ccc(F)cc1)NCc1cccnc1	-57.8%
COc1ccc(-c2ncn(CCC#N)c2[N+](=O)[O-])cc1	0.491%
CC1=CS/C(=C(/C#N)C(=O)N2CCOCC2)N1c1ccccc1	9.62%
CC(C)(C)c1ccc(OCC(=O)NNC(=O)C2CCCO2)cc1 (centres unmarked)	10.3%
O=C(NCc1ccco1)c1ccc2nccnc2c1	-25.5%
Cc1ccc(S(=O)(=O)Nc2cccc(C(=O)N3CCN(c4ccccc4O)CC3)c2)cc1F	-31.4%

SMILES	hERG current change (%, negative = inhibition) at 10uM
Cc1ccnc(SCCn2c(N(C)Cc3ccccc3)nc3c2c(=O)n(C)c(=O)n3C)n1	-32.5%
Cc1cc(=O)n2nc(N3CCCC(C(=O)NCc4cccc(Cl)c4)C3)sc2n1 (centres unmarked)	-46%
C=CCN(c1ccccc1)S(=O)(=O)c1cccc(C(=O)OCC(=O)NCCOC)c1	-15.8%
CCSc1nc2c(c(=O)[nH]c(=O)n2C)n1CC(O)COc1ccccc1C (centres unmarked)	-20.8%
O=C(NCC12CC3CC(CC(C3)C1)C2)c1cc2n(n1)C(C(F)(F)F)CC(c1ccco1)N2 (centres unmarked)	-5.88%
Clc1ccc(-c2nc(C3CCCCC3)no2)cc1	10%
COc1ccc(C(=O)CN2C(=O)NC3(CCCc4ccccc43)C2=O)c(OC)c1 (centres unmarked)	23.7%
N/C(=N\OC(=O)Cc1ccccc1)c1ccc([N+](=O)[O-])cc1	7.87%
COc1cc(C2=NOC(C(=O)Nc3ccc(C(C)=O)cc3)C2)cc(OC)c1OC (centres unmarked)	12.6%
COc1ccccc1NC(=O)c1ccc(NC(=O)CN(C)Cc2ccccc2F)cc1	-9.01%
CC(=O)OC1(c2ccccc2)CCN(C2CCCCC2)CC1C.Cl (centres unmarked)	-18.6%
CC(=O)c1ccc(C(=O)N2CCCC(C(=O)c3cc(F)ccc3F)C2)s1 (centres unmarked)	2.88%
O=C(Nc1cccc(/C=C/c2nc3ccccc3c(=O)[nH]2)c1)c1ccccc1Cl	-5.58%
O=C(Nc1ccc(S(=O)(=O)N2CCCCC2)cc1)c1ccc(CN2CCc3ccccc3C2)cc1	8.76%
COc1ccc(C(=O)N2CCCC(Nc3ccc(F)c(F)c3)C2)c(OC)n1 (centres unmarked)	4.09%
CCOC(=O)C1C(=O)Nc2nc3ccccc3n2C1C(C)C (centres unmarked)	-5.74%
COc1ccccc1N=c1oc2cc(O)ccc2cc1C(=O)NCC1CCCO1 (centres unmarked)	-1.66%
O=C(NCc1ccccc1)C1CCN(S(=O)(=O)N2CCOCC2)CC1	-10.8%
